According to PubChem BioAssay (Tox21):
Several values for one entry are separate records, joined by “and”; a condition that tells them apart may be missing. Equal values may be shown once. The shares of active, inactive and inconclusive entries below differ from those in the screen. A potency beside an inconclusive call is a rough fit, not a confirmed value. Activity calls are given as the source filed them. Calls come from the whole dose curve; as a rule, active = well fitted activation curve with a large enough effect in the signal ratio in the repeat runs (not every such curve was filed as active); inconclusive = weak or mixed curves; inactive = flat fitted curve, though single readings scatter; the % refers to the signal ratio.

Assay: p53 small molecule agonists, cell-based qHTS assay (AID 1963582)
Conditions: HCT-116 p53RE-bla reporter, beta-lactamase FRET ratio, 16 h; activation: at 66 µM (top of the series) unless noted
Description: National Center for Advancing Translational Sciences [NCATS]
Division of Preclinical Innovation [DPI]
U.S. Environmental Protection Agency [EPA]
National Institutes of Environmental Health Sciences [NIEHS]
National Toxicology Program [NTP]
U.S. Food and Drug Administration [FDA]
p53, a tumor suppressor protein, is activated following cellular insult, including DNA damage and other cellular stresses. The activation of p53 regulates cell fate by inducing DNA repair, cell cycle arrest, apoptosis, or cellular senescence. The activation of p53, therefore, is a good indicator of DNA damage and other cellular stresses. […] The activation of the reporter gene under culture conditions can be detected by fluorescence intensity. This cell line was used to screen the Tox21 10K compound library in a 1536-well plate format and to identify agonists that activate the p53 signaling pathway.
Tox21 Assay Protocol Summary:
The p53RE-bla cells were dispensed at 4,000 cells/5 ul/well in 1536-well black wall/clear bottom plates using a Multidrop dispenser. After the assay plates were incubated at a 37 C/5% CO2 incubator for 5 hours, 23 nL of compounds dissolved in DMSO, positive controls or DMSO only was transferred to the assay plate by a pin tool. The plates were incubated at 37 C for 16 hours. After 1 uL of LiveBLAzerTM B/G FRET substrate was added using a Flying Reagent Dispenser, the plates were incubated at room temperature for 2 hours, and fluorescence intensity was measured by an Envision plate reader.
% is set by controls: 0 for no effect and ±100 for the full control effect; potency is the fitted concentration of half-maximal effect; tags give direction and shape of the fitted curve or compound fluorescence and quenching.

SMILES	Potency	activation
Cc1c(C(N)=O)cc([N+](=O)[O-])cc1[N+](=O)[O-]	inactive	–
CCCCCCCC/C=C\CCCCCCCC(=O)NCc1ccc(O)c(OC)c1	inactive	–
Cc1nc(-c2ccc(Cl)cc2)oc1COC(C)(C)C(=O)O	inactive	–
CCN(CC#N)c1cccc(C)c1	inactive	–
O=C1Cc2cc(CCN3CCN(c4nsc5ccccc45)CC3)c(Cl)cc2N1	inconclusive: 25.1 µM [falling, single point]	–
CCCCC(CC)COC(=O)/C=C/c1ccc(OC)cc1 (stereo not given)	inactive	–
C=Cc1ccccc1	inconclusive: 0.0319 µM [falling, full curve, poor fit]	–
C=CC/C=C/C	inconclusive: 0.0335 µM [falling, full curve, poor fit]	–
CCCSc1ccc2nc(NC(=O)OC)[nH]c2c1	inconclusive: 0.408 µM [activator, partial curve]	inconclusive: 1.3% [at 30.3 µM]
Cc1cc(Br)ccc1NC(=O)CCl	inconclusive: 45.8 µM [fluorescent, single point]	–
CC[C@@H]([C@H](C)O)n1ncn(-c2ccc(N3CCN(c4ccc(OC[C@@H]5CO[C@@](Cn6cncn6)(c6ccc(F)cc6F)C5)cc4)CC3)cc2)c1=O	inconclusive: 5 µM [rising, partial curve]	–
C=COCC(C)C	inconclusive: 0.0013 µM	–
Nc1ncn([C@@H]2O[C@H](CO)[C@@H](O)[C@H]2O)c(=O)n1	inconclusive: 6.46 µM [activator] and inconclusive: 8.9 µM [activator, full curve]	–
CN(C)CCC=C1c2ccccc2CCc2ccccc21	inconclusive: 20.4 µM [rising, partial curve] and inconclusive: 16.2 µM [rising, partial curve] and inconclusive: 8.9 µM [rising, partial curve]	–
CCCCc1ccc(N)cc1	inconclusive: 0.001 µM [falling, full curve, poor fit]	–
CC(C)(C)c1nnc(NS(=O)(=O)c2ccc(N)cc2)s1	inactive	–
Nc1nc(N)c2nc(-c3ccccc3)c(N)nc2n1	inconclusive: 32.8 µM [activator]	–
O=C(Nc1ccc(Cl)cc1)Nc1ccc(Cl)c(Cl)c1	inconclusive: 5.11 µM [fluorescent, partial curve, poor fit]	–
O=C(O)c1ccccc1Nc1cc(Cl)ccc1C(=O)O	–	inactive: 1.24% [at 13.5 µM]

SMILES	Potency	activation
CN1CN(C)CN(C)C1	inconclusive: 51.3 µM [activator, single point]	–
CCCCCCCCCCCC(=O)NCCCN(C)C	inconclusive: 45.8 µM [falling, single point]	–
OCc1cc(C(O)CNCCCCCCOCCCCc2ccccc2)ccc1O (stereo not given)	inconclusive: 7.93 µM [rising, partial curve]	–
C[n+]1c2cc(N)ccc2cc2ccc(N)cc21 (tested in a mixture with another compound)	inconclusive: 5 µM	–
CCCCCCCCCCCCN	inconclusive: 4.58 µM [falling, single point]	–
Oc1cccc(O)c1	inactive	–
CCC(=O)O[C@@H]1C[C@H]2CC[C@]1(C)C2(C)C	inactive	–
CCCCCCOC(=O)c1ccc(O)cc1	inactive	–
CCCCc1oc2ccc(NS(C)(=O)=O)cc2c1C(=O)c1ccc(OCCCN(CCCC)CCCC)cc1	inconclusive: 25.1 µM [single point]	–
CC(C)(C)c1ccc(C(O)CCCN2CCC(C(O)(c3ccccc3)c3ccccc3)CC2)cc1 (stereo not given)	inconclusive: 22.3 µM	–
CO[Si](CCCS)(OC)OC	inactive	–
c1ccc(C[P+](c2ccccc2)(c2ccccc2)c2ccccc2)cc1	inconclusive: 2.57 µM [fluorescent, partial curve, poor fit]	–
O=Cc1ccc(Cl)c([N+](=O)[O-])c1	inconclusive: 45.8 µM [fluorescent, partial curve]	–
C[C@H]1O[C@@H](n2cc(F)c(=O)[nH]c2=O)[C@H](O)[C@@H]1O	active: 15.8 µM	–
CN(C)CCOC(c1ccc(Cl)cc1)c1ccccn1 (stereo not given)	inactive	–
c1ccc2ncccc2c1	inactive	–
C=CC(=O)[O-].C=CC(=O)[O-].[Zn+2]	inactive	–
CN1C[C@H]2c3ccccc3Oc3ccc(Cl)cc3[C@@H]2C1	inconclusive: 5 µM [rising, partial curve, poor fit]	–

Same assay, conditions: HCT-116 p53RE-bla reporter, beta-lactamase FRET ratio, 16 h; at 30.3 µM (top of the series)

SMILES	activation
Nc1nc(N)c2nc(-c3ccccc3)c(N)nc2n1	inconclusive: 17.1%

Same assay, conditions: HCT-116 p53RE-bla reporter, beta-lactamase FRET ratio, 16 h; at 66 µM (top of the series)

SMILES	activation
Nc1nc(N)c2nc(-c3ccccc3)c(N)nc2n1	inconclusive: 20%
